# Results as given in PubChem BioAssay AID1745853 (National Center for Advancing Translational Sciences (NCATS), 2022).
# “And” between values parts separate entries of the source, which are not always exact repeats. Equal entries are not always repeated. This is one part of the list. Shown are side measurements of this screen, not its main read-out; they come without a call.
# Experiments:
# Test in all cases: Primary Screen for Target Class Profiling of Small Molecule Inhibitors of Methyltransferases
# [1] = target: Glycine N-methyltransferase (Homo sapiens) (UniProt Q14749); conditions: purified enzyme, MTase-Glo SAH luminescence; measured here: GNMT inhibition; at 40 µM; stronger effect = lower value
# Outline: (§1)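 Each enzyme was reacted with SAM and its substrate, with compounds tested once at 40 uM; SAH formed was read by MTase-Glo luminescence.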
# [2] = target: Guanidinoacetate N-methyltransferase (Homo sapiens) (UniProt Q14353); conditions: purified enzyme, MTase-Glo SAH luminescence; measured here: GAMT inhibition; at 40 µM; stronger effect = lower value
# Outline: as §1
# [3] = target: Histamine N-methyltransferase (Homo sapiens) (UniProt P50135); conditions: purified enzyme, MTase-Glo SAH luminescence; measured here: HNMT inhibition; at 40 µM; stronger effect = lower value
# Outline: as §1
# [4] = target: Nicotinamide N-methyltransferase (Homo sapiens) (UniProt P40261); conditions: purified enzyme, MTase-Glo SAH luminescence; measured here: NNMT inhibition; at 40 µM; stronger effect = lower value
# Outline: as §1
# [5] = target: Phenylethanolamine N-methyltransferase (Homo sapiens) (UniProt P11086); conditions: purified enzyme, MTase-Glo SAH luminescence; measured here: PNMT inhibition; at 40 µM; stronger effect = lower value
# Outline: as §1
# On the % scale 0 is the no-effect control and ±100 the full control effect.
Compound,"activity change, negative = inhibition [1]","activity change, negative = inhibition [2]","activity change, negative = inhibition [3]","activity change, negative = inhibition [4]","activity change, negative = inhibition [5]"
H-DPPDPDRFYGMM-NH2,3.67%,4.27%,12.9%,-6.27%,6.01%
CCn1cc(S(=O)(=O)N2CCC[C@H]2c2nc(-c3ccc(F)cc3)n[nH]2)cn1,-3.99%,-6.99%,-0.502%,-10.1%,-5.47%
CCN1C(=O)c2cc3ccccc3n2CC1(C)C(=O)NCC(=O)NCc1ccc(C)cc1 (configuration not stated),0.304%,0%,8.05%,-1.51%,2.02%
COC1=CC(=O)O[C@@H](CCc2ccccc2)[C@@H]1O,2.99%,0.997%,12.3%,-11.9%,-5.07%
CC1CCN(S(=O)(=O)c2ccc3c(ccn3CC(=O)NC3CC3)c2)CC1,-3.03%,4.03%,-1.65%,-0.786%,0.186%
C[C@@H]1C(=O)O[C@H]2[C@H]1CC[C@@]1(C)C(=O)C=C[C@@](C)(O)[C@H]21,4.66%,4.63%,9.23%,-7.28%,3.38%
O=C(c1cscn1)N1CCC2(CCCN(CCC3CCCCC3)C2=O)C1 (configuration not stated),-0.734%,1.62%,1.6%,-14.4%,8.85%
Cc1noc([C@@H]2CN(C3CCCCCC3)C[C@H]2CO)n1,-2.32%,0.943%,0.462%,-4.49%,9.85%
CC(=O)Nc1ccc2c(c1)S(=O)(=O)N=C(CC(C)C)N2CC(C)C,-9.23%,-9.97%,-22.9%,-14.6%,-8.54%
CCOC(=O)C(Cc1cccc(N2CCC(Nc3ccccc3)CC2)c1F)OC (configuration not stated),-3.61%,1.32%,2.07%,0.105%,3.73%
O=C(c1cccs1)N1CCCC(Cc2noc(-c3cnccn3)n2)C1 (configuration not stated),-1.91%,-0.454%,-0.361%,-3.53%,-8.63%
CC[C@H](C)[C@H](NC(=O)[C@H]([C@@H](C)CC)N(C)C(C)=O)C(=O)N[C@H](C(=O)N[C@@H](CC(C)C)C(=O)[C@@]1(C)CO1)[C@@H](C)O,-4.1%,-8.63%,4.74%,-13%,-4.79%
O=C(O[C@H]1[C@@H]2C[C@@H]3OC[C@@](O)([C@H]2[C@H](O[C@@H]2O[C@H](CO)[C@@H](O)[C@H](O)[C@H]2O)O3)[C@@H]1O)c1ccccc1,0.78%,3.33%,9.49%,-9.66%,3.01%
C=CCn1c(=O)c2ccc(C(=O)NCC(C)C)cc2n2c(=O)n(CC(=O)NC(C)C)nc12,5.21%,0%,0.618%,7.04%,7.18%
CCCn1c(=O)c2ccc(C(=O)NC(C)C)cc2n2c(=O)n(CC(=O)Nc3ccc(F)cc3)nc12,-0.54%,4.59%,-0.159%,-2.53%,2.48%
O=C(Cc1ccncc1)N1CC(F)(F)C[C@H]1c1nc(C2CC2)no1,-2.85%,-3.14%,0.333%,-8.61%,-17%
O=C(Nc1ccccc1F)C1CCCN(Cc2cccc(-c3cccs3)c2)C1 (configuration not stated),-7.72%,-10.5%,-5.58%,-15.1%,-8.53%
O=C1C[C@@H](c2ccc(O)cc2)Oc2cc(O)ccc21,2.84%,5.02%,11.2%,-10.5%,3.43%
O=C(CCc1nnc2n(Cc3ccc(Cl)cc3)c(=O)c3ccccc3n12)N1CCN(c2ccc(F)cc2)CC1,3.06%,3.29%,0.156%,-9.19%,-1.28%

Compound,"activity change, negative = inhibition [1]","activity change, negative = inhibition [2]","activity change, negative = inhibition [3]","activity change, negative = inhibition [4]","activity change, negative = inhibition [5]"
O=C(c1ccc(Nc2nccc(-c3cc4ccccc4s3)n2)cc1)N1CCC(N2CCCC2)CC1,-72.2%,8.19%,-58.9%,-25.5%,-13.6%
CC(C)c1nc2ccccc2n1CC(=O)N1CC[C@](C)(O)[C@@H](O)C1,-3.3%,-3.01%,-1.1%,-8.3%,-9.26%
CN(C)S(=O)(=O)N1CCC2(CCC(=O)N(CC3CC3)CC2)CC1,0.528%,4.26%,0.62%,-5.62%,13.8%
COc1ccccc1/C=C/CN1CCC(n2cc(CN(C)C)nn2)CC1,-5.28%,-13.1%,-8.18%,-15.2%,-15%
Cc1ccc(C)c(N2C(=O)CSc3c(c4ccccc4n3C)C2C(=O)NCCCOC(C)C)c1 (configuration not stated),-9.23%,3.9%,0.58%,0.538%,0.004%
COc1ccc(-c2c(C)nn3c(NCCN4CCOCC4)cc(C)nc23)cc1OC,-4.58%,6.34%,6.38%,-6.61%,5.31%
CCn1c(CN2CCN(c3nc4ccccc4s3)CC2)nnc1C1CC(N)C1 (configuration not stated),-3.81%,-0.843%,-2.7%,2.16%,-7.63%
CC(C)CNC(=O)c1ccc2c(=O)n(C(C)C)c3nn(CC(=O)Nc4ccc(F)cc4)c(=O)n3c2c1,6.92%,0%,11.5%,1.74%,6.87%
O=C(Nc1cccc(Nc2nccc(Nc3cccc(C(F)(F)F)c3)n2)c1)C1CC1,,-1.34%,,-43%,-23.5%
Cc1ccc2occ(-c3cc(-c4ccc(F)cc4)nc4c3COc3ccc(F)cc3-4)c(=O)c2c1,,-9.4%,,-19.7%,-4.71%
Cc1nn(-c2ccccc2)c(C)c1/C=N/N1CCN(Cc2ccccc2)CC1,-8.51% and -11.5%,-6.76% and 3.78%,2.77% and 0.769%,-13% and -8.08%,-4.81% and 2.74%
C=C1C(=C/C=C2\CCC[C@]3(C)[C@@H]([C@H](C)/C=C/[C@@H](O)C4CC4)CC[C@@H]23)C[C@@H](O)C[C@@H]1O,,-15.7%,,-25.1%,-6.1%
Nc1ncnc2c1ncn2[C@@H]1O[C@H](CO)[C@@H](O)[C@H]1O,169%,104%,32%,39.4%,-27.6%
Fc1ccc(-c2noc([C@@H]3Cc4nc[nH]c4CN3CCCc3ccccc3)n2)cc1Cl,-10.9%,-4.07%,-12.9%,-9.97%,-6.82%
O=S(=O)(Cc1ccccc1)N[C@H]1CO[C@H]2[C@@H]1OC[C@@H]2Nc1nccc(-c2cccc(F)c2)n1,-26.7%,-9.08%,-4.44%,-18.5%,-8.34%
CC1CCC2C(C)(C)C(O)CCC2(C)C12Cc1c(O)cc3c(c1O2)CN=C3N (configuration not stated),-0.659%,-1.5%,6.26%,-23.1%,1.4%
Cc1nc(N2CCC(C(=O)NCC3CCCO3)CC2)cc(C(F)(F)F)n1 (configuration not stated),-0.176%,-3.12%,-1.54%,-1.62%,1.82%
CC1(C)S[C@H]2[C@H](NC(=O)[C@@H](N)c3ccc(O)cc3)C(=O)N2[C@H]1C(=O)O,,5.41%,,-9.47%,0.129%
CC(=O)NC1C(OC(C)(C)C2CCC3(C)C=C(C4CCC5C4(C)CC(O)C4OC(C(C)(C)O)CCC45C)CCC3O2)OC(CO)C(O)C1O (configuration not stated),-6.26%,15.2%,7.92%,-0.331%,-4.87%
